Test systems include RXF 393 renal; A498 renal; KM12 colon; SK-MEL-5 melanoma; SK-OV-3 ovarian; SF-539 CNS; SN12C renal; MALME-3M melanoma; SNB-19 CNS; CCRF-CEM leukemia; RPMI-8226 leukemia; SK-MEL-28 melanoma; HCC-2998 colon; NCI-H23 lung; HT29 colon; MOLT-4 leukemia; SNB-75 CNS; M14 melanoma; HOP-92 NSCLC; COLO 205 colon; EKVX NSCLC; NCI/ADR-RES ovarian; UACC-62 melanoma; NCI-H522 lung; OVCAR-3 ovarian; 786-0 renal; CAKI-1 renal; MCF7 breast; SF-268 CNS; OVCAR-8 ovarian; HS 578T breast; SR leukemia; PC-3 prostate; HOP-62 NSCLC; SF-295 CNS; UO-31 renal; IGROV1 ovarian; HCT-15 colon; HL-60(TB) leukemia; NCI-H460 lung; NCI-H226 lung; K-562 leukemia; HCT-116 colon; OVCAR-4 ovarian; SK-MEL-2 melanoma; T-47D breast.

Common to all, as to experiment: NCI tumour cell line growth inhibition, 48 h

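Growth conditions: 96-well plates. Treatment: test compound, 48 hours, 5 concentrations. Analysis: linear interpolation between bracketing concentrations; unreached endpoints set to highest concentration. GI50 is the concentration that inhibits growth by half.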 The source holds more than one record for some entries. The list is limited to them. There may be further records. A record mostly stands for its own series of concentrations, which the source does not state; some values may only mark the edge of a range.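 TGI: total growth inhibition.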

As to `O=c1cc(-c2cccc3ccccc23)[nH]c2ncccc12`, the TGI in the experiment on RXF 393 renal was 173 nM and > 100 µM; with A498 renal it was 428 nM and 11.7 nM; in the experiment on KM12 colon, 495 nM and 36.4 µM; with SK-MEL-5 melanoma, 20.1 nM and 241 nM; in the experiment with SK-OV-3 ovarian, 741 nM and > 100 µM; in the experiment with SF-539 CNS, 96.5 nM and > 100 µM.

For `COc1cc(NCc2ccc3nc(N)nc(N)c3c2C)cc(OC)c1OC` (tested in a mixture with another compound), the TGI is 310 nM and 80.1 µM with SN12C renal; 4.8 µM and 57.7 µM in the experiment with RPMI-8226 leukemia; 912 nM and 25.7 µM in the experiment with HCC-2998 colon; 369 nM and 38.9 µM in the experiment with NCI-H23 lung; 641 nM, 24.1 µM, 38.4 µM in the experiment with M14 melanoma; 716 nM and 18.7 µM with HOP-92 NSCLC. The TGI with UACC-62 melanoma is 97.1 nM and 6.14 µM; with NCI-H522 lung, 33.5 µM [1 test] and 58 µM [mean of 13 tests] and 678 nM [mean of 4 tests]; in the experiment on 786-0 renal, 381 nM and 37.5 µM; in the experiment on CAKI-1 renal it was 678 nM and 25.4 µM; in the experiment with SK-MEL-5 melanoma, 162 nM, 20 µM, 34.6 µM; in the experiment with OVCAR-8 ovarian, 249 nM and 33.3 µM. The TGI with HS 578T breast is 895 nM and 56.2 µM; with HOP-62 NSCLC it was 250 nM and 4.04 µM; in the experiment on SF-295 CNS it was 490 nM and 29.1 µM; in the experiment with UO-31 renal it was 370 nM, 783 nM, 103 µM; in the experiment with SK-OV-3 ovarian it was 699 nM and 86.7 µM; in the experiment on SF-539 CNS, 144 nM, 32.1 µM, 15.4 µM. In addition, the GI50 in the experiment on MALME-3M melanoma is 10.1 µM [1 test] and 2.96 nM [mean of 4 tests]; in the experiment on SNB-19 CNS it was 803 nM [1 test] and 42.6 nM [mean of 3 tests]; in the experiment on CCRF-CEM leukemia, 28.4 nM [1 test] and 0.301 nM [mean of 4 tests]; in the experiment with RPMI-8226 leukemia, 582 nM [1 test] and 3.52 nM [mean of 3 tests]; with SK-MEL-28 melanoma it was 5.19 µM [1 test] and 9.97 nM [mean of 3 tests]; in the experiment with NCI-H23 lung, 76.2 nM [1 test] and 0.586 nM [mean of 4 tests]. The GI50 in the experiment with HT29 colon was 17.9 nM [1 test] and 0.178 nM [mean of 3 tests]; with MOLT-4 leukemia, 33.8 nM [1 test] and 0.238 nM [mean of 4 tests]; in the experiment with SNB-75 CNS, 181 nM and 22.3 µM; in the experiment with RXF 393 renal, 10.8 µM [1 test] and 4.94 nM [mean of 2 tests]; in the experiment on COLO 205 colon, 16.1 µM [1 test] and 8.6 nM [mean of 3 tests]; in the experiment on EKVX NSCLC it was 18.9 µM [1 test] and 766 nM [mean of 11 tests] and 39.9 nM [mean of 3 tests]. In addition, the GI50 in the experiment with NCI/ADR-RES ovarian was 452 nM [1 test] and 21.4 nM [mean of 3 tests]; with UACC-62 melanoma, 42 nM [1 test] and 0.184 nM [mean of 3 tests]; with NCI-H522 lung it was 178 nM [1 test] and 586 nM [mean of 13 tests] and 9.29 nM [mean of 4 tests]; with A498 renal it was 98.9 µM [1 test] and 5.78 nM [mean of 3 tests]; in the experiment with OVCAR-3 ovarian, 38.4 µM [1 test] and 33.8 nM [mean of 4 tests]; in the experiment on KM12 colon it was 93 nM [1 test] and 1.87 nM [mean of 3 tests]. Also, the GI50 with CAKI-1 renal is 96 µM [1 test] and 5.6 nM [mean of 4 tests]; in the experiment with MCF7 breast, 40.4 nM [1 test] and 2.03 nM [mean of 3 tests]; in the experiment with SK-MEL-5 melanoma, 38.5 nM [1 test] and 0.19 nM [mean of 4 tests]; in the experiment on SF-268 CNS it was 76.1 nM [1 test] and 0.895 nM [mean of 4 tests]; with OVCAR-8 ovarian, 57.3 nM [1 test] and 0.751 nM [mean of 4 tests]; in the experiment on SR leukemia it was 22.2 µM [1 test] and 25 nM [mean of 3 tests]. The GI50 is 520 nM [1 test] and 25 nM [mean of 3 tests] with PC-3 prostate; 77.7 nM [1 test] and 1.26 nM [mean of 4 tests] with HOP-62 NSCLC; 68.1 nM [1 test] and 3.33 nM [mean of 3 tests] in the experiment with UO-31 renal; 59.3 nM [1 test] and 0.273 nM [mean of 4 tests] in the experiment on IGROV1 ovarian; 18.8 nM [1 test] and 0.261 nM [mean of 3 tests] in the experiment with SF-539 CNS.

For `CCC(/C=C/C1OC(=O)C=CC1C)=C\C(C)C/C=C/C(C)=C/C(C)C(=O)C(C)C(O)C(C)C/C(C)=C/C(=O)O` (stereo not given), the TGI in the experiment with CCRF-CEM leukemia is 1.67 nM and 5.48 µM; with HCT-15 colon, 0.408 nM and 33.6 µM; with HL-60(TB) leukemia, 0.00696 nM and 3.8 µM; in the experiment on RPMI-8226 leukemia, 0.0675 nM and 8.99 µM; with SK-MEL-28 melanoma, 3.21 nM and 10.7 µM; in the experiment with HCC-2998 colon, 0.197 nM and 6.33 µM. Further, the TGI in the experiment on NCI-H460 lung was 0.114 nM and 2.43 µM; in the experiment on MOLT-4 leukemia, 0.0466 nM and 5.96 µM; with NCI-H226 lung, 0.641 nM and 3.26 µM; in the experiment with HOP-92 NSCLC, 0.0416 nM and 18.8 µM; with COLO 205 colon it was 0.305 nM and 10.4 µM; with UACC-62 melanoma, 0.0794 nM and 7.47 µM. Moreover, the TGI is 0.113 nM and 5.99 µM with K-562 leukemia; 0.031 nM and 4.03 µM with NCI-H522 lung; 0.0269 nM and 6.28 µM in the experiment on A498 renal; 0.0895 nM and 1.7 µM in the experiment on OVCAR-3 ovarian; 0.0159 nM and 4.29 µM with HCT-116 colon; 3.34 nM and 9.44 µM in the experiment on CAKI-1 renal. Also, the TGI in the experiment with MCF7 breast was 0.00121 nM and 3.39 µM; in the experiment with SK-MEL-5 melanoma, 0.492 nM and 1.44 µM; with OVCAR-4 ovarian, 0.0157 nM and 6.62 µM; with HOP-62 NSCLC, 2.81 nM and 6.08 µM; in the experiment on SK-MEL-2 melanoma, 0.103 nM and 9.57 µM; with UO-31 renal, 0.46 nM and 6.61 µM. For the same molecule, the TGI in the experiment on SF-539 CNS was 0.016 nM and 3.87 µM. Moreover, the GI50 in the experiment with NCI-H460 lung is < 0.001 nM and 701 nM.

Take `C=C(Cl)C(Br)(CCl)CCC(Br)C(C)(C)Cl` (stereo not given): the TGI in the experiment on T-47D breast is 4.74 µM and 74.8 µM.

The record behind these values is PubChem BioAssay (NCI).
